# Laboratory results published in PubChem BioAssay AID1745853 (National Center for Advancing Translational Sciences (NCATS), 2022).
# The other results are listed elsewhere or left out. Shown are side measurements of this screen, not its main read-out; they come without a call.
# Tests used:
# Experiment in all cases: Primary Screen for Target Class Profiling of Small Molecule Inhibitors of Methyltransferases
# [1] = molecular target: Glycine N-methyltransferase (Homo sapiens) (UniProt Q14749); details: purified enzyme, MTase-Glo SAH luminescence; measured here: GNMT inhibition; at 40 µM; stronger effect = lower value
# From the text: (§1) PI: Matthew D. Hall Ph.D. and Quinlin M. Hanson Ph.D.
# (§2) National Center for Advancing Translational Sciences (NCATS)
# (§3) National Institute of Health (NIH), Rockville, MD
# (§4) Target class profiling (TCP) is a chemical biology approach amenable to investigating understudied biological targets. TCP is achieved by developing a generalizable assay platform and applying it to screen a curated set of compound libraries against representative members of a target class. Small molecule methyltransferases (SMMTase) are a subclass of methyltransferase that act on metabolites to modulate signaling pathways, metabolize xenobiotics, or balance the available methyl pool. We screened four curated libraries totaling 27,574 unique compounds against the SMMTases nicotinamide N-methyltransferase (NNMT), phenylethanolamine N-methyltransferase (PNMT), histamine N-methyltransferase (HNMT), glycine N-methyltransferase (GNMT), catechol O-methyltransferase (COMT), and guanidinoacetate N-methyltransferase (GAMT). The data generated by this TCP can be leveraged for informed tool molecule development. For example, in the associated publication we identified a chemotype of HNMT-selective inhibitors. Additionally, we identified a putative SMMTase-selective inhibitor with potential as a tool molecule for studying broader methyltransferase biology.
# (§5) High-through put screening assays were developed at the National Center for Advancing Translational Science (NCATS) for the enzymes NNMT, PNMT, HNMT, GNMT, COMT, and GAMT. Enzymatic activity was measured as a function of SAM cofactor conversion using the MTase Glo kit (Promega) for all enzymes. All assays were performed in 1536-well format with substrates and SAM concentrations at KM values. Enzyme concentration and assay timing were optimized for 10-20% SAM conversion. Initial screening of 27,574 compounds was done as single-point assays using the highest compound concentration (40 uM). […] These compounds were replated in 11-point dose response and assayed against NNMT, PNMT, HNMT, GNMT, COMT, GAMT, and a counter-assay. The IC50 and efficacy (maximal response) values were determined for each dose-response curve. These values are also accounted for in the area under the curve (AUC) values.
# (§6) PROTOCOL TABLE (as described by Inglese J, Shamu CE and Guy RK. 2007)
# (§7) SEQUENCE No. (e.g., 1, 2, 3, etc.); […] (e.g., Cells, Incubation, Reagent, etc.); VALUE; DESCRIPTION.
# (§8) 1; Reagent; 2 uL; SMMTase Enzyme (2x) in reaction buffer, columns 1- 48.
# (§9) 2; Reagent; 1 uL; SAM (4x) in reaction buffer, columns 1-48.
# (§10) 3; Controls; 23 nL; DMSO in column 4; sinefungin in DMSO (0 uM - 40 uM) in 7-point 1:2 dilution series (n = 2) in column 2.
# (§11) 4; Compounds; 23 nL; Columns 5-48.
# (§12) 5; Reagent; 1 uL; Substrate (4x) in reaction buffer, columns 2-48.
# (§13) 6; Time; 20-30 min; Incubation.
# (§14) 7; Reagent; 1 uL; MTase-Glo reagent (5X), columns 1-48.
# (§15) 8; Time; 30 min; Incubation.
# (§16) 9; Reagent; 5 uL; MTase-Glo Detection reagent, columns 1-48.
# (§17) 10; Time; 30 min; Incubation, luminescence evolution.
# (§18) 11; Detection; Luminescence; ViewLux uHTS Microplate Imager (PerkinElmer).
# (§19) NOTES (numbers refer to Sequence numbers above)
# (§20) 1, 2, 5. White Medium Binding Greiner 1536-well plates (Cat #789175-F, Greiner Bio-One, Monroe, NC); Reaction buffer: 50 mM Tris, pH 8.0, 3 mM MgCl2, 1 mM EDTA, 50 mM NaCl, 1 mM DTT, and 0.1 mg/mL BSA. Evaporation was prevented by covering assay plates with metal lids containing holes to allow gas diffusion.
# (§21) 1. Six SMMTase were profiled: HNMT, GNMT, PNMT, COMT, NNMT, GAMT
# (§22) 5. The corresponding substrate was used for each enzyme: HNMT - 5.3 uM Histamine; GNMT - >500 uM Glycine; PNMT - 16.2 uM Norephinephrine; COMT - 13.7 uM Norephinephrine; NNMT - 3.8 uM Nicotinamide; GAMT - 2.5 uM Guanidinoacetate.6, 8, 10. Room temperature
# (§23) 6. Final reaction conditions: 10 nM COMT, 5 uM SAM, 15 uM norepinephrine, 50 mM Tris, pH 8.0, 3 mM MgCl2, 1 mM EDTA, 50 mM NaCl, 1 mM DTT, and 0.1 mg/mL BSA; refer to tables 2 and S1 for specific timing.
# 8. […]
# [2] = molecular target: Guanidinoacetate N-methyltransferase (Homo sapiens) (UniProt Q14353); details: purified enzyme, MTase-Glo SAH luminescence; measured here: GAMT inhibition; at 40 µM; stronger effect = lower value
# From the text: as §1, §2, §3, §4, §5, §6, §7, §8, §9, §10, §11, §12, §13, §14, §15, §16, §17, §18, §19, §20, §21, §22, §23
# 8. […]
# [3] = molecular target: Histamine N-methyltransferase (Homo sapiens) (UniProt P50135); details: purified enzyme, MTase-Glo SAH luminescence; measured here: HNMT inhibition; at 40 µM; stronger effect = lower value
# From the text: as §1, §2, §3, §4, §5, §6, §7, §8, §9, §10, §11, §12, §13, §14, §15, §16, §17, §18, §19, §20, §21, §22, §23
# 8. […]
# [4] = molecular target: Nicotinamide N-methyltransferase (Homo sapiens) (UniProt P40261); details: purified enzyme, MTase-Glo SAH luminescence; measured here: NNMT inhibition; at 40 µM; stronger effect = lower value
# From the text: as §1, §2, §3, §4, §5, §6, §7, §8, §9, §10, §11, §12, §13, §14, §15, §16, §17, §18, §19, §20, §21, §22, §23
# 8. […]
# [5] = molecular target: Phenylethanolamine N-methyltransferase (Homo sapiens) (UniProt P11086); details: purified enzyme, MTase-Glo SAH luminescence; measured here: PNMT inhibition; at 40 µM; stronger effect = lower value
# From the text: as §1, §2, §3, §4, §5, §6, §7, §8, §9, §10, §11, §12, §13, §14, §15, §16, §17, §18, §19, §20, §21, §22, §23
# 8. […]
# On the % scale 0 is the no-effect control and ±100 the full control effect.
SMILES,"activity change, negative = inhibition [1]","activity change, negative = inhibition [2]","activity change, negative = inhibition [3]","activity change, negative = inhibition [4]","activity change, negative = inhibition [5]"
CCOC(=O)c1c(NC(=O)N2Cc3ccccc3-n3cccc3C2CC)sc2c1CCCC2 (configuration not stated),2.28%,-1.32%,-2.54%,-5.36%,-4.2%
CCOc1ccc(C2c3cccn3-c3ccccc3CN2C(=O)NCc2cccc(OC)c2)cc1 (configuration not stated),6.09%,0.002%,4.92%,2.15%,7.19%
CC1=CC(=O)[C@@H](O)[C@@]2(C)C1C[C@H]1OC(=O)[C@H](O)[C@@]3(O)[C@@H](C)[C@@H](O)[C@H](O)C2[C@@]13C (some centres not stated),-0.804%,-2.11%,-5.96%,-15.5%,-0.795%
CN1CN(c2ccccc2)C2(CCN(CCCC(=O)c3ccc(F)cc3)CC2)C1=O,-6.57%,-3.24%,-8.39%,-15.8%,-1.25%
CNc1ccc2oc(C[C@H]3O[C@@]4(CC[C@H]3C)O[C@H](C(C)C(=O)c3ccc[nH]3)[C@H](C)C[C@H]4C)nc2c1C(=O)O (some centres not stated),0.112%,,6.68%,,
CCC1c2cccn2-c2ccccc2CN1C(=O)Nc1cccc2c1CCCC2 (configuration not stated),-1.68%,0%,-0.697%,3.91%,-2.5%
NC(CCP(=O)(O)O)C(=O)O (configuration not stated),-5.34%,3.46%,-1.62%,-5.72%,4.97%
O=C(Nc1ccc(Br)cc1)N1Cc2ccccc2-n2cccc2C1c1ccccc1 (configuration not stated),-1.43%,2.5%,-1.63%,1.92%,3.68%
CCCCCn1cc(C(=O)Oc2cccc3cccnc23)c2ccccc21,1.95%,-12.8%,4.46%,-26.2%,-13.1%
CC(C)CCNC(=O)N1Cc2ccccc2-n2cccc2C1C (configuration not stated),11.9%,0.051%,5.29%,-1.44%,8.25%
COc1ccc(C2c3cccn3-c3ccccc3CN2C(=O)Nc2ccc(C)c(F)c2)cc1OC (configuration not stated),7.15%,0.96%,4%,3.99%,5.88%
CCOC(=O)CNC(=O)N1Cc2ccccc2-n2cccc2C1c1cccc(Cl)c1 (configuration not stated),15.2%,4.59%,7.72%,-1.97%,8.13%
C[N+]1(C)CCc2cc3c(cc2[C@H]1[C@@H]1OC(=O)c2c1ccc1c2OCO1)OCO3,2.17%,13.9%,11.1%,-3.68%,4.38%
CS(=O)(=O)NC[C@H]1C[C@@H]2CCN1C[C@@H]2CN1CCc2ccccc2C1,-5.22%,-6.42%,-11.8%,-8.65%,-7.76%
COc1cc(OC)c(NC(=O)N2Cc3ccccc3-n3cccc3C2c2cccs2)cc1Cl (configuration not stated),15.1%,6.37%,9.04%,5.89%,9.14%
COC[C@]12CN(C)C3C4[C@H](OC)[C@H]1C3(C(OC)C[C@H]2O)[C@H]1C[C@@]2(O)[C@H](OC(=O)c3ccccc3)[C@@H]1[C@]4(O)[C@@H](O)[C@@H]2OC (some centres not stated),0.127%,-7.46%,5.2%,-11.5%,2.16%
COc1ccc2c(c1O)-c1cccc3c1[C@@H](C2)N(C)CC3,-7.28%,12.4%,5.21%,-5.38%,3.42%
C[C@H]1O[C@@H](O[C@H]2[C@@H](O)C[C@H](O[C@H]3[C@@H](O)C[C@H](O[C@H]4CC[C@@]5(C)[C@H](CC[C@@H]6[C@@H]5CC[C@]5(C)[C@@H](C7=CC(=O)OC7)CC[C@]65O)C4)O[C@@H]3C)O[C@@H]2C)C[C@H](O)[C@@H]1O,-0.431%,-7.55%,-0.083%,-16.2%,-1.52%

SMILES,"activity change, negative = inhibition [1]","activity change, negative = inhibition [2]","activity change, negative = inhibition [3]","activity change, negative = inhibition [4]","activity change, negative = inhibition [5]"
COc1ccccc1CN[C@H]1C2CCN(CC2)[C@H]1C(c1ccccc1)c1ccccc1,5.47%,14.7%,10.5%,-5.23%,5.11%
O=C(Nc1ccc2c(c1)OCCO2)N1Cc2ccccc2-n2cccc2C1c1ccccc1Cl (configuration not stated),-0.663%,0%,-1.79%,-5.11%,-1.92%
CCn1c(CO)nnc1C1CC(NC(=O)c2cnn(Cc3ccccc3)c2)C1 (configuration not stated),-3.34%,-5.58%,0.574%,-9.58%,10%
CCc1ccc(C2c3cccn3-c3ccccc3CN2C(=O)Nc2cccc(C)c2C)cc1 (configuration not stated),11%,0.024%,4.52%,3.12%,6.92%
CC(C)C1c2cccn2-c2ccccc2CN1C(=O)Nc1ccc(F)cc1 (configuration not stated),1.85%,1.35%,6.8%,6.9%,9.8%
CC(=O)OC[C@]12C[C@H](OC(=O)CC(C)C)C(C)=C[C@H]1O[C@@H]1[C@H](O)C[C@@]2(C)[C@]12CO2,0%,3.49%,1.14%,-9.51%,6.02%
Cc1ccc(Cl)cc1NC(=O)N1Cc2ccccc2-n2cccc2C1c1ccccc1C (configuration not stated),1.23%,0%,3.5%,8.9%,-3.31%
O=c1[nH]oc2c1CCNC2,0.603%,11.6%,3.56%,-4.63%,4.61%
O=C1N[C@@H](Cc2ccccc2)CN2CCCC[C@@H]12,-2.96%,-5.34%,0.298%,-13.8%,-1.45%
COc1cc(C(O)CN)ccc1O (configuration not stated),-2.33%,4.68%,-16.8%,-3.37%,10.3%
CC(C)(O)/C=C/C(=O)[C@](C)(O)[C@H]1[C@H](O)C[C@@]2(C)[C@@H]3CC=C4[C@@H](C[C@H](O)C(=O)C4(C)C)[C@]3(C)C(=O)C[C@]12C,-0.979%,-3.07%,7.09%,-13.3%,4.94%
O=C(C[C@@H]1NCCC[C@H]1O)Cn1cnc2ccccc2c1=O,-1.61%,-10.4%,9.63%,-12.5%,3.58%
CO[C@@H]1[C@@H](O)[C@@H](O[C@H]2CC[C@]3(C=O)C4CC[C@]5(C)[C@@H](C6=CC(=O)OC6)CC[C@]5(O)[C@@H]4CC[C@H]3C2)O[C@@H](C)[C@H]1O[C@@H]1O[C@H](CO[C@@H]2O[C@H](CO)[C@@H](O)[C@H](O)[C@H]2O)[C@@H](O)[C@H](O)[C@H]1O (some centres not stated),3.26%,0.497%,10.6%,-12.3%,-5.21%
C#C[C@H]1CN2CC[C@H]1C[C@@H]2CNS(=O)(=O)CCC,-5.99%,-10.6%,-6.5%,-14.4%,-13.8%
CCOC(=O)Nc1ccc(NCc2ccc(F)cc2)cc1N,1.03%,4.76%,10.5%,-13.6%,0.991%
O=C(NC1CCCC1)N1Cc2ccccc2-n2cccc2C1c1ccccc1Cl (configuration not stated),7.2%,1.52%,6.94%,-5.48%,1.49%
CCOc1ccc(C2c3cccn3-c3ccccc3CN2C(=O)Nc2ccc(F)cc2F)cc1 (configuration not stated),2.31%,0.634%,3.43%,6.26%,4.75%
Cc1ccc(C2c3cccn3-c3ccccc3CN2C(=O)Nc2ccc(Br)cc2)cc1 (configuration not stated),5.93%,0%,4.76%,2.94%,4.84%
